Measured values published in the supplement of paper PMC12217912.
The other results are listed elsewhere or left out. The full chains were built here from the parent and the listed change. Values near 0.05 are background.

B1: TEV protease; numbered along this chain (parent)
chain: MGESLFKGPRDYNPISSSICHLTNESDGHTTSLYGIGFGPFIITNKHLFRRNNGTLVVQSLHGVFKVKDTTTLQQHLVDGRDMIIIRMPKDFPPFPQKLKFREPQREERICLVTTNFQTKSMSSMVSDTSCTFPSGDGIFWKHWIQTKDGQCGSPLVSTRDGFIVGIHSASNFTNTNNYFTSVPKNFMELLTNQEAQQWVSGWRLNADSVLWGGHKVFMVKPEEPFQPVKEATQL

Variants of: B1
Assay: raw area under fraction-flipped curve 0-4 h after induction (AUC4h, not background-subtracted), DNA-recorder readout of cleavage of the substrate (dimensionless); higher = more cleavage of the substrate by the protease variant
Settings: temperature: 34 °C; time window: 0-4 h after rhamnose induction
Method: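 In vivo DNA recorder in E. coli TOP10(DE3) ΔrhaA at 34 °C. Each TEVp single-site mutant (parent TEVp 0) is paired with a single-site variant of the 7-mer TEVs (canonical ENLYFQ|S). The substrate sits between flexible linkers in a Bxb1-sfGFP-TEVs-SsrA fusion, so cleavage stabilises Bxb1 and speeds flipping of a recombination array, read by NGS. The value is the raw area under the fraction-flipped curve over 0-4 h after rhamnose induction (AUC4h), with ≥20 reads per time point. It is not background-subtracted; inactive controls average about 0.047.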
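Further: Bxb1 expression induced with 0.2% (w/v) L-rhamnose at OD600 near 0.5, cultures sampled hourly, flipped fraction per protease–substrate barcode pair counted by paired-end Illumina sequencing.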

MGESLFKGPRDYNPISSSICHLTNESDGHTTSLYGIGFGPFIITNKHLFRRNNGTLVVQSLHGVFKVKDTTTLQQHLVDGRDMIIIRMPKDFPPFPQKLKNREPQREERICLVTTNFQTKSMSSMVSDTSCTFPSGDGIFWKHWIQTKDGQCGSPLVSTRDGFIVGIHSASNFTNTNNYFTSVPKNFMELLTNQEAQQWVSGWRLNADSVLWGGHKVFMVKPEEPFQPVKEATQL [F101N]
area with substrate ENLAFQS: 0.0434 | area with substrate ENLDFQS: 0.0413 | area with substrate ENLEFQS: 0.0445 | area with substrate ENLFFQS: 0.0508 | area with substrate ENLHFQS: 0.0264 | area with substrate ENLIFQS: 0.0477 | area with substrate ENLMFQS: 0.0644 | area with substrate ENLNFQS: 0.0522 | area with substrate ENLPFQS: 0.0551 | area with substrate ENLSFQS: 0.052 | area with substrate ENLWFQS: 0.031

MGESLFKGPRDYNPISSSICHLTNESDGHTTSLYGIGFGPFIITNKHLFRRNNGTLVVQSLHGVFKVKDTTTLQQHLVDGRDMIIIRMPKDFPPFPQKLKFIEPQREERICLVTTNFQTKSMSSMVSDTSCTFPSGDGIFWKHWIQTKDGQCGSPLVSTRDGFIVGIHSASNFTNTNNYFTSVPKNFMELLTNQEAQQWVSGWRLNADSVLWGGHKVFMVKPEEPFQPVKEATQL [R102I]
area with substrate ENLAFQS: 0.0434 | area with substrate ENLCFQS: 0.0364 | area with substrate ENLDFQS: 0.0482 | area with substrate ENLEFQS: 0.0442 | area with substrate ENLFFQS: 0.045 | area with substrate ENLHFQS: 0.0511 | area with substrate ENLKFQS: 0.0495 | area with substrate ENLPFQS: 0.0547 | area with substrate ENLQFQS: 0.0567 | area with substrate ENLRFQS: 0.0541

MGESLFKGPRDYNPISSSICHLTNESDGHTTSLYGIGFGPFIITNKHLFRRNNGTLVVQSLHGVFKVKDTTTLQQHLVDGRDMIIIRMPKDFPPFPQKLKFREAQREERICLVTTNFQTKSMSSMVSDTSCTFPSGDGIFWKHWIQTKDGQCGSPLVSTRDGFIVGIHSASNFTNTNNYFTSVPKNFMELLTNQEAQQWVSGWRLNADSVLWGGHKVFMVKPEEPFQPVKEATQL [P104A]
area with substrate ENLAFQS: 0.0538 | area with substrate ENLCFQS: 0.0621 | area with substrate ENLDFQS: 0.0596 | area with substrate ENLEFQS: 0.0958 | area with substrate ENLFFQS: 0.104 | area with substrate ENLIFQS: 0.0878 | area with substrate ENLKFQS: 0.0689 | area with substrate ENLLFQS: 0.0758 | area with substrate ENLMFQS: 0.0788 | area with substrate ENLNFQS: 0.0701 | area with substrate ENLWFQS: 0.0779

MGESLFKGPRDYNPISSSICHLTNESDGHTTSLYGIGFGPFIITNKHLFRRNNGTLVVQSLHGVFKVKDTTTLQQHLVDGRDMIIIRMPKDFPPFPQKLKFREHQREERICLVTTNFQTKSMSSMVSDTSCTFPSGDGIFWKHWIQTKDGQCGSPLVSTRDGFIVGIHSASNFTNTNNYFTSVPKNFMELLTNQEAQQWVSGWRLNADSVLWGGHKVFMVKPEEPFQPVKEATQL [P104H]
area with substrate ENLAFQS: 0.0546 | area with substrate ENLDFQS: 0.0538 | area with substrate ENLEFQS: 0.0572 | area with substrate ENLFFQS: 0.0728 | area with substrate ENLHFQS: 0.0518 | area with substrate ENLIFQS: 0.0413 | area with substrate ENLKFQS: 0.0449 | area with substrate ENLLFQS: 0.0883 | area with substrate ENLNFQS: 0.0497 | area with substrate ENLQFQS: 0.0591 | area with substrate ENLRFQS: 0.052 | area with substrate ENLSFQS: 0.0595 | area with substrate ENLWFQS: 0.0616

MGESLFKGPRDYNPISSSICHLTNESDGHTTSLYGIGFGPFIITNKHLFRRNNGTLVVQSLHGVFKVKDTTTLQQHLVDGRDMIIIRMPKDFPPFPQKLKFRENQREERICLVTTNFQTKSMSSMVSDTSCTFPSGDGIFWKHWIQTKDGQCGSPLVSTRDGFIVGIHSASNFTNTNNYFTSVPKNFMELLTNQEAQQWVSGWRLNADSVLWGGHKVFMVKPEEPFQPVKEATQL [P104N]
area with substrate ENLAFQS: 0.0772 | area with substrate ENLCFQS: 0.0459 | area with substrate ENLDFQS: 0.0533 | area with substrate ENLEFQS: 0.0514 | area with substrate ENLFFQS: 0.0527 | area with substrate ENLHFQS: 0.0401 | area with substrate ENLKFQS: 0.0554 | area with substrate ENLMFQS: 0.0637 | area with substrate ENLNFQS: 0.0414 | area with substrate ENLPFQS: 0.0462 | area with substrate ENLQFQS: 0.0571 | area with substrate ENLVFQS: 0.0442 | area with substrate ENLWFQS: 0.0351

MGESLFKGPRDYNPISSSICHLTNESDGHTTSLYGIGFGPFIITNKHLFRRNNGTLVVQSLHGVFKVKDTTTLQQHLVDGRDMIIIRMPKDFPPFPQKLKFREVQREERICLVTTNFQTKSMSSMVSDTSCTFPSGDGIFWKHWIQTKDGQCGSPLVSTRDGFIVGIHSASNFTNTNNYFTSVPKNFMELLTNQEAQQWVSGWRLNADSVLWGGHKVFMVKPEEPFQPVKEATQL [P104V]
area with substrate ENLAFQS: 0.0644 | area with substrate ENLDFQS: 0.058 | area with substrate ENLEFQS: 0.0551 | area with substrate ENLFFQS: 0.066 | area with substrate ENLHFQS: 0.0657 | area with substrate ENLIFQS: 0.0659 | area with substrate ENLKFQS: 0.0717 | area with substrate ENLLFQS: 0.0665 | area with substrate ENLMFQS: 0.0864 | area with substrate ENLNFQS: 0.0648 | area with substrate ENLPFQS: 0.0638 | area with substrate ENLSFQS: 0.0408 | area with substrate ENLTFQS: 0.0453 | area with substrate ENLVFQS: 0.121 | area with substrate ENLWFQS: 0.0564

MGESLFKGPRDYNPISSSICHLTNESDGHTTSLYGIGFGPFIITNKHLFRRNNGTLVVQSLHGVFKVKDTTTLQQHLVDGRDMIIIRMPKDFPPFPQKLKFREPQGEERICLVTTNFQTKSMSSMVSDTSCTFPSGDGIFWKHWIQTKDGQCGSPLVSTRDGFIVGIHSASNFTNTNNYFTSVPKNFMELLTNQEAQQWVSGWRLNADSVLWGGHKVFMVKPEEPFQPVKEATQL [R106G]
area with substrate ENLAFQS: 0.0706 | area with substrate ENLDFQS: 0.0751 | area with substrate ENLFFQS: 0.0685 | area with substrate ENLGFQS: 0.0683 | area with substrate ENLHFQS: 0.0653 | area with substrate ENLLFQS: 0.0781 | area with substrate ENLPFQS: 0.066 | area with substrate ENLSFQS: 0.0663 | area with substrate ENLWFQS: 0.0576

MGESLFKGPRDYNPISSSICHLTNESDGHTTSLYGIGFGPFIITNKHLFRRNNGTLVVQSLHGVFKVKDTTTLQQHLVDGRDMIIIRMPKDFPPFPQKLKFREPQKEERICLVTTNFQTKSMSSMVSDTSCTFPSGDGIFWKHWIQTKDGQCGSPLVSTRDGFIVGIHSASNFTNTNNYFTSVPKNFMELLTNQEAQQWVSGWRLNADSVLWGGHKVFMVKPEEPFQPVKEATQL [R106K]
area with substrate ENLAFQS: 0.0656 | area with substrate ENLEFQS: 0.0595 | area with substrate ENLHFQS: 0.0594 | area with substrate ENLIFQS: 0.0848 | area with substrate ENLLFQS: 0.0796

MGESLFKGPRDYNPISSSICHLTNESDGHTTSLYGIGFGPFIITNKHLFRRNNGTLVVQSLHGVFKVKDTTTLQQHLVDGRDMIIIRMPKDFPPFPQKLKFREPQREERVCLVTTNFQTKSMSSMVSDTSCTFPSGDGIFWKHWIQTKDGQCGSPLVSTRDGFIVGIHSASNFTNTNNYFTSVPKNFMELLTNQEAQQWVSGWRLNADSVLWGGHKVFMVKPEEPFQPVKEATQL [I110V]
area with substrate ENLAFQS: 0.0606 | area with substrate ENLCFQS: 0.0731 | area with substrate ENLDFQS: 0.0546 | area with substrate ENLEFQS: 0.0607 | area with substrate ENLFFQS: 0.0947 | area with substrate ENLHFQS: 0.0651 | area with substrate ENLIFQS: 0.123 | area with substrate ENLKFQS: 0.0648 | area with substrate ENLMFQS: 0.0766 | area with substrate ENLNFQS: 0.0663 | area with substrate ENLQFQS: 0.0416 | area with substrate ENLRFQS: 0.117 | area with substrate ENLSFQS: 0.0533 | area with substrate ENLVFQS: 0.0885 | area with substrate ENLWFQS: 0.0622

MGESLFKGPRDYNPISSSICHLTNESDGHTTSLYGIGFGPFIITNKHLFRRNNGTLVVQSLHGVFKVKDTTTLQQHLVDGRDMIIIRMPKDFPPFPQKLKFREPQREERICAVTTNFQTKSMSSMVSDTSCTFPSGDGIFWKHWIQTKDGQCGSPLVSTRDGFIVGIHSASNFTNTNNYFTSVPKNFMELLTNQEAQQWVSGWRLNADSVLWGGHKVFMVKPEEPFQPVKEATQL [L112A]
area with substrate ENLAFQS: 0.0645 | area with substrate ENLCFQS: 0.0682 | area with substrate ENLDFQS: 0.0632 | area with substrate ENLFFQS: 0.07 | area with substrate ENLGFQS: 0.0689 | area with substrate ENLHFQS: 0.0559 | area with substrate ENLIFQS: 0.0692 | area with substrate ENLKFQS: 0.0695 | area with substrate ENLLFQS: 0.057 | area with substrate ENLMFQS: 0.0623 | area with substrate ENLNFQS: 0.0748 | area with substrate ENLPFQS: 0.0517 | area with substrate ENLRFQS: 0.0682 | area with substrate ENLSFQS: 0.0633 | area with substrate ENLTFQS: 0.0703 | area with substrate ENLVFQS: 0.0728 | area with substrate ENLWFQS: 0.0615
